Results reported in patent US20100124555A1, “Compositions and Methods for Treating Pancreatic Tumors” (UNIVERSITE DE LA MEDITERRANEE, priority 2007, published 2010).

Columns and labels:
[1] = Tissue cross-reaction study (staining of healthy tissues); details: non-specific crossreactivity
Method: The staining specificity of the IgM 16D10 and chimeric IgG rec16D10 antibodies was assessed by examining their respective staining of various healthy tissues. […] Staining with the chimeric antibody reel 6D10, in contrast, was negative on each of these healthy tissues.

[2] = test system: cell surface antigens of fixed SOJ-6 cells; assay: FACS cell surface binding stability on fixed SOJ-6 cells; set-up: species or system human; details: estimated from half-life assuming kon 5×10^5 to 5×10^6 M^−1s^−1
From the text: Taking in account that most of the antibodies that have been studied so far at Innate Pharma, have kon rate association constants ranging from 5×10^5 to 5×10^6 M^−1s^−1, one can estimate that the recombinant 16D10 antibody bivalent affinity is in the nanomolar order (e.g., 10 to 1 nanoM) which is compatible with the industrial development of a therapeutic antibody.

[3] = test system: 16D10 antigen on SOJ-6 cells; assay: Flow cytometry detection of antigen at the cell surface, SOJ-6; format: binding, human
Method: Detection of antigens at the surface of SOJ-6 and PANC-1 cells was carried out by indirect fluorescence under the following conditions: cells were released from culture plates by treatment with a non enzymatic dissociation liquid (Calbiochem) for 15 minutes at 37° C. All subsequent steps were carried out at 4° C. The cells were washed with phosphate buffered saline (PBS), fixed with 2% paraformaldehyde in PBS for 15 minutes, and washed with 1% BSA in PBS for 15 minutes. Antigens were exposed for 2 hours to specific antibodies, washed with PBS, and finally incubated for 45 minutes with appropriate FITC-labeled secondary antibodies. Cells were then washed, resuspended in isoflow buffer, and analyzed on Coulter FACSCalibur device.
Flow cytometry experiments were carried out to investigate whether the antigen recognized by 16D10 was found on the surface of cells. Results are shown in FIGS. 14 and 15, representing SOJ-6 and PANC-1 cells, respectively. […] In each case, 16D10 binding was compared to a negative control and a control mouse IgM (Sigma).

NK cells = assay: NK cell activation (ADCC): CD107 mobilization and IFN-γ production by flow cytometry; format: cell-based, human; details: presence of SOJ-6 cells
Method: Thawed purified human NK cells stimulated or not overnight with 100 UI/mL of IL-2 were mixed with SOJ-6 or B221 cell lines at an effector/target ratio equal to 1, alone or in the presence of rec16D10 (30 μg/mL) or rituxan (10 μg/mL). Cells were then incubated for 4 hours at 37° C. in the presence of FITC conjugated anti-CD107 mAbs (Becton Dickinson) and monensin (sigma). After incubation, cells were washed in PBS containing 2 mM EDTA to disrupt cell conjugates and stained for extracellular markers (PC5 conjugated anti-CD56 and PC7 conjugated anti-CD3 purchased from Beckman coulter). Cells were then fixed and permeabilized using IntraPrep reagent (Beckman Coulter). […] Samples were then analysed on FACScanto (Becton Dickinson).
The chimeric antibody rec16D10 (30 μg/ml) was incubated with target SOJ-6 cells together with NK cells, with or without overnight treatment with IL-2 (100 U/ml) (FIG. 19). As a control, the Rituxan antibody (10 μg/ml) was used with target B221 cells. Effector cells and target cells were used at a ratio of: 1/1 (100000 NK/well). Thawed purified NK cells from two donors (NK1 and NK2) were incubated with the antibodies and target cells. Activation of NK cells was examined by virtue of CD 107 staining and IFN-γ secretion. […] Under similar conditions, approximately 30% of NK1 and NK2 cells secreted IFN-γ (vs. less than 16% and 13% in the absence of antibody or with Rituxan in NK1 and NK2 cells, respectively) (FIG. 21).

SOJ-6 cells = assay: Effect of antibodies on SOJ-6 cell proliferation (Example 11); format: cell-based, human
Method: The effects of the IgM antibody 16D10 and the chimeric antibody rec16D10 on the proliferation of SOJ-6 cells were examined. Cells were incubated in culture with no antibodies, with various amounts of 16D10 or rec16D10 antibodies, or with an irrelevant IgG antibody. Antibody 16D10 reduced cell proliferation by approximately 50% at either 25 or 50 μg/ml, while rec16D10 reduced proliferation by more than 20% and more than 35% at 25 and 50 μg/ml, respectively (FIG. 18).

B1: rec16D10: chimeric antibody comprising the variable domains of mouse 16D10 and the constant (Fc) domains of a human IgG1 antibody, produced in HEK293T cells (antibody)
heavy: QVQLQQSDAELVKPGASVKISCKASGYTFTDHAIHWVKQKPEQGLEWIGYISPGNDVIKFNEKFKGKATLTADKSSSTAYMQLNSLTSEDSAVYFCKRSEGGVFDYWGQGTTLTVSSESQSFPNVFPLVSCESPLSDKNLVAMGCLARDFLPSTISFTWNYQNNTEVIQGIRTFPTLRTGGKYLATSQVLLSPKSILEGSDEYLVCKIHYGGKNRDLHVPIPGTEPKSADKTH[omitted - human IgG1 Fc]
light: NIMMTQSPSSLAVSAGEKVTMSCKSSQSVLYSSNQKNFLAWYQQKPGQSPKLLIYWASTRESGVPDRFTGSGSGTDFTLTISSVQAEDLAVYYCHQYLSSYTFGGGTKLEIKRADAAPTVSIFPPSSEQLTSGGASVVCFLNNFYPKDINVKWKIDGSERQNGVLNSWTDQDSKDSTYSMSSTLTLTKDEYERHNSYTCEATHKTSTSPIVKSFNRNEC
staining of healthy tissues (tonsils, salivary gland, peripheral nerve, eyes, bone marrow, ovary, oviduct, parathyroid, prostate, spleen, kidney, adrenals, testes, thymus, ureters, uterus, bladder) [1]: negative
bivalent affinity [2]: 10 to 1 nanoM
effect of trypsin incubation on binding to SOJ-6 cells ([3]; antibody incubated with trypsin): substantially decrease the binding
binding to antigen on SOJ-6 cells ([3]; flow cytometry / FACS): activity was confirmed by FACS on SOJ-6 cells
NK1 cells secreting IFN-γ (NK cells; donor NK1, IL-2 treated): approximately 30%
CD 107-positive staining of NK1 cells (NK cells; donor NK1, IL-2 treated, E/T 1/1, rec16D10 30 μg/ml, Rituxan 10 μg/ml): approximately 53%
NK2 cells secreting IFN-γ (NK cells; donor NK2, IL-2 treated): approximately 30%
CD 107-positive staining of NK2 cells (NK cells; donor NK2, IL-2 treated, E/T 1/1, rec16D10 30 μg/ml, Rituxan 10 μg/ml): ~45%
reduction of SOJ-6 cell proliferation (SOJ-6 cells; 25 μg/ml): more than 20%
reduction of SOJ-6 cell proliferation (SOJ-6 cells; 50 μg/ml): more than 35%
